Assay results published in PubChem BioAssay AID485281 (National Center for Advancing Translational Sciences (NCATS), 2010).
In all, about 350,000 compounds went through this assay and about 260 (0.074%) were called active. Inconclusive results, whose numbers are uncertain, are shown with a selection of clear calls. Calls come from the whole dose curve; as a rule, active = well fitted inhibition curve with a large enough effect; inconclusive = small, poorly fitted or top-dose-only effect; inactive = no such curve, though single readings can be large or run the other way. Where the call is inconclusive, the potency comes from a doubtful curve fit.

What follows are compounds tested against Ferritin light chain (Equus caballus) (UniProt P02791) (assay: qHTS Assay for Identification of Novel General Anesthetics). Details: apoferritin/1-aminoanthracene competitive binding, fluorescence; activity change, negative = displacement: at 77.5 µM (top of the series).
How it was run: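 Probe: 1-aminoanthracene (50% saturated, PBS). Protein: horse-spleen apoferritin, 10 uM. Incubation: 10 min, room temperature. Detection: 380 nm excitation, 535 nm emission. Analysis: normalized response, four-parameter Hill.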
% is set by controls: 0 for no effect and ±100 for the full control effect; potency is the fitted concentration of half-maximal effect; tags give direction and shape of the fitted curve.
Note: nearly all actives have a fitted effect of over 20% in size.

Sequence of UniProt P02791 (P02791 whole entry, looked up): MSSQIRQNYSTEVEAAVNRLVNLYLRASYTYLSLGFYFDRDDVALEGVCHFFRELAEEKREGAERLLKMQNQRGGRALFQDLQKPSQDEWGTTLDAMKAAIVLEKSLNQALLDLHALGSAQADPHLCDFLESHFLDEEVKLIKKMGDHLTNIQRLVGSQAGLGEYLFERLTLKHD

Structure (SMILES)	Potency	activity change, negative = displacement
O=C(COC(=O)c1n[nH]c2ccccc12)NC(=O)NCc1ccco1	inconclusive: 35.5 µM [inhibitor, partial curve]	–
CC(C)(C)c1ccc(CN2N=C(/C=C/c3ccccc3)CCC2=O)cc1	inconclusive: 7.94 µM [inhibitor, full curve, poor fit]	–
CC1=CC(C)(C)Nc2ccc(OC(=O)CN3C(=O)c4ccccc4C3=O)cc21	inconclusive: 15.8 µM [inhibitor, partial curve]	–
Cc1cc(C)c(S(C)(=O)=O)c(Oc2ccc(C(C)(C)C)cc2)n1	inconclusive: 35.5 µM [inhibitor, single point]	–
COc1ccc(S(=O)(=O)n2nc(OC(=O)c3ccccc3Br)cc2N)cc1	inconclusive: 7.94 µM [inhibitor, partial curve]	–
NS(=O)(=O)c1ccc(NC(=O)CN2C(=O)CCC2=O)cc1	–	inactive: 1.91%
Cc1ccc(O)c(NC(=O)CCS(=O)(=O)c2nc(-c3ccc4c(c3)OCO4)cc(C(F)(F)F)n2)c1	inconclusive: 8.91 µM [inhibitor, full curve]	–
CC(=NC1CCCCC1)C1=C(O)c2ccccc2C1=O	inconclusive: 25.1 µM [inhibitor, partial curve]	–
Clc1ccc(-c2nn3c(-c4ccccc4)nnc3s2)cc1	inconclusive: 8.91 µM [inhibitor, partial curve]	–
Cc1cc(C)cc(OCC(=O)OCC(=O)c2ccc3c(c2)NC(=O)CO3)c1	inconclusive: 5.01 µM [inhibitor, partial curve]	–
COc1ccc(N(CC(=O)Nc2ccccc2C(=O)NCCc2ccccc2)S(C)(=O)=O)cc1OC	inconclusive: 44.7 µM [inhibitor, single point]	–
Cc1ccc(SCCNC(=S)Nc2ccc(C)c(C)c2)cc1	–	inactive: 61.8%
CC(=O)N1c2ccccc2N2C(c3c(C)c(C)cc(C)c3C)=NON12	inconclusive: 28.2 µM [inhibitor, partial curve]	–
Cn1c(=O)c2cc(S(=O)(=O)NC(C(=O)Nc3cccc(F)c3)c3ccccc3)ccc2n(C)c1=O (configuration not stated)	inconclusive: 8.91 µM [inhibitor, partial curve]	–
Cc1ccccc1CNC(=O)c1cc(COc2ccc(F)cc2F)on1	inconclusive: 10 µM [inhibitor, partial curve]	–
CC1CCc2c(C(=O)Nc3nccs3)csc2C1 (configuration not stated)	inconclusive: 17.8 µM [inhibitor, partial curve]	–
CCO[C@@H]1OC(C(=O)N2CCCCCCC2)=C[C@H](c2ccc(C(F)(F)F)cc2)[C@H]1CCCO	inconclusive: 25.1 µM [inhibitor, partial curve]	–
O=C(CSc1nnc2ccccn12)c1ccc2c(c1)OCCO2	–	inactive: -3.15%
COc1ccc(Nc2ccc(S(=O)(=O)N3CCCCC3)cc2[N+](=O)[O-])cc1	–	inactive: -2.82%
CCc1ccccc1N1CSC2=C(C#N)C(c3ccccc3F)CC(=O)N2C1 (configuration not stated)	inconclusive: 20 µM [inhibitor, partial curve]	–
COc1cccc(NC(=O)c2c(C(=O)Nc3ccccc3)sc3nc(C)cc(=O)n23)c1	inconclusive: 39.8 µM [inhibitor, partial curve]	–
Cc1cc(C)c(C(=O)CSC2=NC(N)=C(C#N)C3(CCCCC3)C2C(N)=O)cc1C (configuration not stated)	inconclusive: 35.5 µM [inhibitor, partial curve]	–
COC(=O)/C=C1\NC(=O)C(C)S1 (configuration not stated)	–	inactive: 2.02%

Structure (SMILES)	Potency	activity change, negative = displacement
CCOC(=O)C1CCCN(Cc2ccccc2C)C1 (configuration not stated)	–	inactive: -3.88%
OCCNCc1cccc(OCc2ccccc2Cl)c1	inconclusive: 35.5 µM [inhibitor, partial curve]	–
Cc1cc2n(n1)C(c1cn(-c3ccccc3)nc1C)Nc1ccccc1-2 (configuration not stated)	–	inactive: -4.99%
Cc1ccc(C(=O)N(CC(=O)NC2CCCCC2)c2ccccc2C)s1	inconclusive: 14.1 µM [inhibitor, partial curve]	–
O=C(c1cc(COc2ccc(F)cc2Cl)on1)N1CCN(c2cnccn2)CC1	inconclusive: 28.2 µM [inhibitor, partial curve]	–
Cc1ccc(CC(=O)O/N=C(\N)c2cccc([N+](=O)[O-])c2)cc1	inconclusive: 28.2 µM [inhibitor, single point]	–
Cc1csc(Nc2ccccc2C(F)(F)F)n1	inconclusive: 31.6 µM [inhibitor, partial curve]	–
CCCCN1C(=O)C(O)(c2c(C)[nH]c3ccccc23)c2ccccc21 (configuration not stated)	inconclusive: 35.5 µM [inhibitor, partial curve]	–
c1ccc(OCCCn2ccnc2)cc1	inconclusive: 17.8 µM [inhibitor, partial curve]	–
CC(C)(Cc1ccc(O)cc1)NC(=O)SCc1ccccc1	inconclusive: 12.6 µM [inhibitor, partial curve]	–
CCOc1ccc(C(=O)c2cn(Cc3ccc(F)cc3)c3ccc(F)cc3c2=O)cc1	inconclusive: 25.1 µM [inhibitor, partial curve]	–
CC(=O)c1ccc(OC(=O)Cc2cccc3ccccc23)cc1	inconclusive: 28.2 µM [inhibitor, partial curve]	–
CC(=O)c1c(C)[nH]c(C(=O)CN2C(=O)NC(C)(CCC(C)C)C2=O)c1C (configuration not stated)	inconclusive: 22.4 µM [inhibitor, partial curve]	–
Oc1ccc(NCc2ccc(OCc3ccccc3Cl)cc2)cc1	inconclusive: 8.91 µM [inhibitor, partial curve]	–
O=C(O)C1CCCCC1C(=O)Nc1ccc(OCc2ccccc2)cc1 (configuration not stated)	inconclusive: 35.5 µM [inhibitor, partial curve]	–
Cn1c(SCC(=O)Nc2ccc3nc(SCC(=O)N4CCCC4)sc3c2)nnc1-c1ccccc1	inconclusive: 25.1 µM [inhibitor, partial curve]	–
CCN(CC)C(=O)CSc1nc(N)c(-c2ccccc2)c(=O)[nH]1	–	inactive: -2.07%
CCCCCC1CCC(c2n[nH]c(=S)n2C)CC1 (configuration not stated)	–	inactive: -15.6%
FC(F)(F)c1ccccc1-c1nccc(NCc2ccccc2)n1	inconclusive: 35.5 µM [inhibitor, single point]	–
COc1ccc(Cl)cc1NC(=O)c1cc(C)nn1-c1ccccc1	inconclusive: 39.8 µM [inhibitor, single point]	–
COc1ccc(CCN2CCC(CNC(=O)c3cnn(-c4ccccc4)c3C3CCN(C(=O)OC(C)(C)C)CC3)CC2)cc1	inconclusive: 2.82 µM [inhibitor, full curve]	–
Cc1ccc(NCCCCO)cc1C	inconclusive: 17.8 µM [inhibitor, partial curve]	–
COc1cc(/C=C2\SC(=S)N(Nc3ncc(C(F)(F)F)cc3Cl)C2=O)cc(OC)c1OC	inconclusive: 25.1 µM [inhibitor, partial curve]	–

Structure (SMILES)	Potency	activity change, negative = displacement
CCOc1cccc(C=Nc2cc(C)cc(C)c2O)c1O	inconclusive: 35.5 µM [inhibitor, partial curve]	–
Cc1ccc(S(=O)(=O)n2nc(-c3ccc(Cl)cc3)nc2NCc2ccco2)cc1	–	inactive: -16.4%
CCOc1cc2c(cc1OCC)C(c1c(F)cccc1Cl)CC(=O)N2 (configuration not stated)	–	inactive: -9.66%
Cc1cc(C(C)(C)C)cc(C)c1Cn1c2[n+](c3ccc(C(F)(F)F)cc31)CCCCC2	inconclusive: 7.08 µM [inhibitor, partial curve]	–
CCSc1ccc2cc(OC)ccc2[n+]1CC	–	inactive: -10.9%
CC1=CC(C)(C)N(C(=O)C(C)N2C(=O)c3ccccc3C2=O)c2ccc(C)cc21 (configuration not stated)	inconclusive: 50.1 µM [inhibitor, single point]	–
CCCC(=O)OCCNc1cc(Sc2nc3ccccc3[nH]2)c2nonc2c1[N+](=O)[O-]	inconclusive: 22.4 µM [inhibitor, single point]	–
Fc1cccc2sc(N3CCOCC3)nc12	–	inactive: -8.49%
O=S1(=O)CC=C(CSc2nc3ccccc3[nH]2)C1	inconclusive: 39.8 µM [inhibitor, partial curve]	–
Cc1ccc(N2CC(NC(=O)C(=O)c3c[nH]c4ccccc34)CC2=O)cc1 (configuration not stated)	–	inactive: 7.54%
COc1ccc(NC(=O)Cn2nnc(C(=O)NCc3cccs3)c2N)c(OC)c1	inconclusive: 3.55 µM [inhibitor, full curve]	–
CN(C)c1ccc(C(=O)OCC(=O)NCCCc2ccccc2)cc1	inconclusive: 50.1 µM [inhibitor, single point]	–
O=C(/C(=C/O)N=Nc1ccccc1)c1ccncc1	inconclusive: 25.1 µM [inhibitor, partial curve]	–
CCn1c(SCC(=O)Nc2nccs2)nnc1-c1ccc(S(=O)(=O)N2CCCCCC2)cc1	inconclusive: 20 µM [inhibitor, partial curve]	–
O=C(Cn1nnc(-c2ccncc2)n1)NCCc1ccccc1	inconclusive: 17.8 µM [inhibitor, partial curve]	–
Cc1ccc(NC(=O)C2CC3CCC2C3)c(Br)c1 (configuration not stated)	inconclusive: 31.6 µM [inhibitor, partial curve]	–
Cc1cccc(C(=O)Nc2nc(-c3nnn(-c4cc(F)ccc4F)c3C)ns2)c1	inconclusive: 28.2 µM [inhibitor, single point]	–
COc1cccc(-c2cc(C(F)(F)F)nc(-n3cccn3)n2)c1	inconclusive: 28.2 µM [inhibitor, single point]	–
Cc1cc(C)n2[nH]c(=O)c(N=Nc3ccccc3)c2n1	inconclusive: 50.1 µM [inhibitor, single point]	–
Cc1c(Br)c([N+](=O)[O-])nn1CC(=O)c1ccccc1	inconclusive: 7.94 µM [inhibitor, full curve]	–
CCOC(=O)c1ccccc1NC(=O)N1CCOc2ccc(Cl)cc21	inconclusive: 2.82 µM [inhibitor, full curve, poor fit]	–
